# Counter-ions that a name gives are not always drawn. The list shows a part of the results. Repeats are few or missing, and single values can be far off.
# Tested on: Ov4Carbo
# Assay: log2 surviving fraction relative to plate median (drug vs vehicle, or drug+dl922-947 vs dl922-947 alone); ovarian cancer lines: OVCAR4 is platinum-sensitive while Ov4Cis resists cisplatin and Ov4Carbo carboplatin; higher = more cell survival
# Settings: dl922-947 oncolytic adenovirus co-treatment: MOI 10; compound concentration: 10 uM; 192 h
row,SMILES,log2 surviving fraction
1,Nc1c2ccccc2nc2ccccc12 [9-Aminoacridine],-6.33
2,Cn1c(=O)c2c(ncn2CC2OCCO2)n(C)c1=O [Doxofylline],-0.215
3,CCOc1ccccc1OC(c1ccccc1)C1CNCCO1 (stereo not given) [Reboxetine mesylate],-0.307
4,CCC(=O)NCC[C@@H]1CCc2ccc3c(c21)CCO3 [Ramelteon (TAK-375)],2.09
5,Cc1nc2n(c(=O)c1CCN1CCC(c3noc4cc(F)ccc34)CC1)CCCC2O (stereo not given) [Paliperidone (Invega)],0.333
6,NCCc1ccc(O)c(O)c1 [Dopamine hydrochloride (Inotropin)],0.138
7,C#CCC(Cc1cnc2nc(N)nc(N)c2n1)c1ccc(C(=O)N[C@@H](CCC(=O)O)C(=O)O)cc1 (stereo not given in full) [Pralatrexate (Folotyn)],-4.49
8,CN(CCOc1ccc(NS(C)(=O)=O)cc1)CCc1ccc(NS(C)(=O)=O)cc1 [Dofetilide (Tikosyn)],0.136
9,Cc1cc(=O)n(-c2ccccc2)n1C [Antipyrine],0.0122
10,C[C@H](CCC(=O)O)[C@H]1CC[C@H]2[C@@H]3[C@@H](O)C[C@@H]4C[C@H](O)CC[C@]4(C)[C@H]3CC[C@]12C [Ursodiol (Actigal Urso)],2.75
11,O=S(=O)(O)NC1CCCCC1 [Cyclamic  acid],-1.13
12,COc1ccc2cc1Oc1ccc(cc1)C[C@H]1c3c(cc4c(c3Oc3cc5c(cc3OC)CCN(C)[C@@H]5C2)OCO4)CCN1C [Cepharanthine],-7.39
13,O=c1[nH]cnc2c1ncn2[C@H]1CC[C@@H](CO)O1 [Didanosine (Videx)],0.373
14,Fc1ccc([C@@H]2CCNC[C@H]2COc2ccc3c(c2)OCO3)cc1 [Paroxetine HCl],-4.12
15,CC(C)NCC(O)COc1ccc(COCCOC(C)C)cc1 (stereo not given) [Bisoprolol],1.1
16,CC(=O)O[C@H]1C[C@@H]2CC[C@@H]3[C@H](CC[C@@]4(C)[C@H]3C[C@H]([N+]3(C)CCCCC3)[C@@H]4OC(C)=O)[C@@]2(C)C[C@@H]1N1CCCCC1 [Vecuronium Bromide],0.43
17,CCCCOc1cc(C(=O)NCCN(CC)CC)c2ccccc2n1 [Dibucaine HCL],-2.14
18,CNC(=O)CN(CCN(CCN(CC(=O)O)CC(=O)NC)CC(=O)O)CC(=O)O.O.[Gd] [Gadodiamide (Omniscan)],0.371
19,COc1cc2nc(N(C)CCCNC(=O)C3CCCO3)nc(N)c2cc1OC (stereo not given) [Alfuzosin hydrochloride (Uroxatral)],-2.09
20,CCOC(=O)c1c(C)n(C)c2ccc(O)cc12 [Mecarbinate],-0.303
21,COc1ccc(C2CNC(=O)C2)cc1OC1CCCC1 (stereo not given) [Rolipram],0.155
22,CCC1=C[C@@H]2CN(C1)Cc1c([nH]c3ccccc13)[C@@](C(=O)OC)(c1cc3c(cc1OC)N(C)[C@H]1[C@@](O)(C(=O)OC)[C@H](OC(C)=O)[C@]4(CC)C=CCN5CC[C@]31[C@@H]54)C2 [Vinorelbine (Navelbine)],-5.3
23,CC/C(=C(/CC)c1ccc(O)cc1)c1ccc(O)cc1 [Diethylstilbestrol (Stilbestrol)],-4.43
24,O=NN(CCCl)C(=O)NC1CCCCC1 [Lomustine (CeeNU)],0.455
25,COc1cc(/C=C/C(=O)CC(=O)/C=C/c2ccc(O)c(OC)c2)ccc1O [Curcumin],-0.792
26,O=C1NC(=O)C(c2ccccc2)(c2ccccc2)N1 [Phenytoin (Lepitoin)],-0.702
27,CCCC(=O)OCOC(=O)C1=C(C)NC(C)=C(C(=O)OC)C1c1cccc(Cl)c1Cl (stereo not given) [Cleviprex (Clevidipine)],0.463
28,O=P(O)(O)C(O)(Cn1ccnc1)P(=O)(O)O [Zoledronic Acid (Zoledronate)],1.2
29,CC1(C)S[C@@H]2[C@H](NC(=O)[C@H](N)c3ccccc3)C(=O)N2[C@H]1C(=O)O [Ampicillin sodium],-0.344
30,Cc1c(C(=O)NN2CCCCC2)nn(-c2ccc(Cl)cc2Cl)c1-c1ccc(Cl)cc1,-0.758

# Same assay, conditions: dl922-947 oncolytic adenovirus co-treatment: none; compound concentration: 10 uM; 192 h
row,SMILES,log2 surviving fraction
1,NCCCC(O)(P(=O)(O)O)P(=O)(O)O [Alendronate (Fosamax)],0.431
2,NCCc1c[nH]c2ccc(O)cc12 [Serotonin HCl],0.261
3,COc1ccc(CC2c3cc(OC)c(OC)cc3CC[N+]2(C)CCC(=O)OCCCCCOC(=O)CC[N+]2(C)CCc3cc(OC)c(OC)cc3C2Cc2ccc(OC)c(OC)c2)cc1OC (stereo not given) [Atracurium besylate],0.0568
4,Nc1nc(F)nc2c1ncn2[C@@H]1O[C@H](COP(=O)(O)O)[C@@H](O)[C@@H]1O [Fludarabine Phosphate (Fludara)],1.21
5,NCC[C@H](O)C(=O)N[C@@H]1C[C@H](N)[C@@H](O[C@H]2O[C@H](CN)[C@@H](O)[C@H](O)[C@H]2O)[C@H](O)[C@H]1O[C@H]1O[C@H](CO)[C@@H](O)[C@H](N)[C@H]1O [Amikacin sulfate],0.991
6,O[C@@H]1CO[C@H]2[C@@H]1OC[C@@H]2O [Isosorbide],0.0885
7,C=C[C@H]1CN2CC[C@H]1C[C@H]2[C@H](O)c1ccnc2ccc(OC)cc12 [Quinine hydrochloride dihydrate],-1.94
8,Fc1ccc(C(c2ccc(F)cc2)N2CCN(C/C=C/c3ccccc3)CC2)cc1 [Flunarizine 2HCl],-3.74
9,CC(=O)[C@H]1CC[C@H]2[C@@H]3C[C@H](C)C4=CC(=O)CC[C@]4(C)[C@H]3[C@@H](O)C[C@]12C [Medrysone],0.226
10,O=C(NC(Cc1cc(=O)[nH]c2ccccc12)C(=O)O)c1ccc(Cl)cc1 (stereo not given) [Rebamipide],-0.477
11,Nc1c2ccccc2nc2ccccc12 [9-Aminoacridine],-11.4
12,Cn1c(=O)c2c(ncn2CC2OCCO2)n(C)c1=O [Doxofylline],0.608
13,CCOc1ccccc1OC(c1ccccc1)C1CNCCO1 (stereo not given) [Reboxetine mesylate],-0.572
14,CCC(=O)NCC[C@@H]1CCc2ccc3c(c21)CCO3 [Ramelteon (TAK-375)],0.906
15,Cc1nc2n(c(=O)c1CCN1CCC(c3noc4cc(F)ccc34)CC1)CCCC2O (stereo not given) [Paliperidone (Invega)],1.12
16,NCCc1ccc(O)c(O)c1 [Dopamine hydrochloride (Inotropin)],-0.642
17,C#CCC(Cc1cnc2nc(N)nc(N)c2n1)c1ccc(C(=O)N[C@@H](CCC(=O)O)C(=O)O)cc1 (stereo not given in full) [Pralatrexate (Folotyn)],-7.26
18,CN(CCOc1ccc(NS(C)(=O)=O)cc1)CCc1ccc(NS(C)(=O)=O)cc1 [Dofetilide (Tikosyn)],-0.577
19,Cc1cc(=O)n(-c2ccccc2)n1C [Antipyrine],0.26
20,C[C@H](CCC(=O)O)[C@H]1CC[C@H]2[C@@H]3[C@@H](O)C[C@@H]4C[C@H](O)CC[C@]4(C)[C@H]3CC[C@]12C [Ursodiol (Actigal Urso)],0.804

row,SMILES,log2 surviving fraction
1,O=S(=O)(O)NC1CCCCC1 [Cyclamic  acid],-0.528
2,COc1ccc2cc1Oc1ccc(cc1)C[C@H]1c3c(cc4c(c3Oc3cc5c(cc3OC)CCN(C)[C@@H]5C2)OCO4)CCN1C [Cepharanthine],-9.89
3,O=c1[nH]cnc2c1ncn2[C@H]1CC[C@@H](CO)O1 [Didanosine (Videx)],0.273
4,Fc1ccc([C@@H]2CCNC[C@H]2COc2ccc3c(c2)OCO3)cc1 [Paroxetine HCl],-6.55
5,CC(C)NCC(O)COc1ccc(COCCOC(C)C)cc1 (stereo not given) [Bisoprolol],0.942
6,CC(=O)O[C@H]1C[C@@H]2CC[C@@H]3[C@H](CC[C@@]4(C)[C@H]3C[C@H]([N+]3(C)CCCCC3)[C@@H]4OC(C)=O)[C@@]2(C)C[C@@H]1N1CCCCC1 [Vecuronium Bromide],-0.376
7,CCCCOc1cc(C(=O)NCCN(CC)CC)c2ccccc2n1 [Dibucaine HCL],-0.232
8,CNC(=O)CN(CCN(CCN(CC(=O)O)CC(=O)NC)CC(=O)O)CC(=O)O.O.[Gd] [Gadodiamide (Omniscan)],-0.314
9,COc1cc2nc(N(C)CCCNC(=O)C3CCCO3)nc(N)c2cc1OC (stereo not given) [Alfuzosin hydrochloride (Uroxatral)],-0.82
10,CCOC(=O)c1c(C)n(C)c2ccc(O)cc12 [Mecarbinate],-0.0563
11,COc1ccc(C2CNC(=O)C2)cc1OC1CCCC1 (stereo not given) [Rolipram],1.95
12,CCC1=C[C@@H]2CN(C1)Cc1c([nH]c3ccccc13)[C@@](C(=O)OC)(c1cc3c(cc1OC)N(C)[C@H]1[C@@](O)(C(=O)OC)[C@H](OC(C)=O)[C@]4(CC)C=CCN5CC[C@]31[C@@H]54)C2 [Vinorelbine (Navelbine)],-9.38
13,CC/C(=C(/CC)c1ccc(O)cc1)c1ccc(O)cc1 [Diethylstilbestrol (Stilbestrol)],0.00748
14,O=NN(CCCl)C(=O)NC1CCCCC1 [Lomustine (CeeNU)],-0.339
15,COc1cc(/C=C/C(=O)CC(=O)/C=C/c2ccc(O)c(OC)c2)ccc1O [Curcumin],-3.67
16,O=C1NC(=O)C(c2ccccc2)(c2ccccc2)N1 [Phenytoin (Lepitoin)],-0.116
17,CCCC(=O)OCOC(=O)C1=C(C)NC(C)=C(C(=O)OC)C1c1cccc(Cl)c1Cl (stereo not given) [Cleviprex (Clevidipine)],0.522
18,O=P(O)(O)C(O)(Cn1ccnc1)P(=O)(O)O [Zoledronic Acid (Zoledronate)],0.982
19,CC1(C)S[C@@H]2[C@H](NC(=O)[C@H](N)c3ccccc3)C(=O)N2[C@H]1C(=O)O [Ampicillin sodium],-0.74
20,Cc1c(C(=O)NN2CCCCC2)nn(-c2ccc(Cl)cc2Cl)c1-c1ccc(Cl)cc1,-6.33
